# The supplement of paper PMC8728848
# Some of the results follow.
# B1: AT1G15820(NC) (Arabidopsis thaliana) (protein)
# chain: MAMAVSGAVLSGLGSSFLTGGKRGATALASGVGDAIAPFSFGSLLGTQLLLMGWVESKRWVDFFNPDSQSVEWATPWSKTAENFANYTGDQGYPGGRFFDPLGLAGKNRDGVYEPDFEKLERLKLAEIKHSRLAMVAMLIFYFEAGQGKTPLGALGL
# Tests used:
# Experiment in all cases: glycan array binding signal (z-score within array); higher = stronger binding
# Details in all cases: glycan notation: IUPAC condensed, linker removed
# [1] = target: Gal(b1-2)Gal
# Procedure, shortened: (§1)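 Columns mapping to the same glycan were averaged after glycan names were converted to IUPAC-condensed notation. The data come from 3228 arrays in the Consortium for Functional Glycomics database, limited to those with an available protein sequence. Binding is reported as a within-array Z-score averaged across arrays of one protein sequence and across linkers.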
# [2] = target: Gal(b1-3)Gal
# Procedure, shortened: as §1
# [3] = target: Gal(b1-3)Gal(b1-4)GlcNAc
# Procedure, shortened: as §1
# [4] = target: Gal(b1-3)GalNAc
# Procedure, shortened: as §1
# [5] = target: Gal(b1-3)GalNAc(a1-3)[Fuc(a1-2)]Gal(b1-4)Glc
# Procedure, shortened: as §1
# [6] = target: Gal(b1-3)GalNAc(a1-3)[Fuc(a1-2)]Gal(b1-4)GlcNAc
# Procedure, shortened: as §1
# [7] = target: Gal(b1-3)GalNAc(b1-3)Gal
# Procedure, shortened: as §1
# [8] = target: Gal(b1-3)GalNAc(b1-3)Gal(a1-4)Gal(b1-4)Glc
# Procedure, shortened: as §1
# [9] = target: Gal(b1-3)GalNAc(b1-4)Gal(b1-4)Glc
# Procedure, shortened: as §1
# [10] = target: Gal(b1-3)GalNAc(b1-4)[Neu5Ac(a2-3)]Gal(b1-4)Glc
# Procedure, shortened: as §1
# [11] = target: Gal(b1-3)GlcNAc
# Procedure, shortened: as §1
# [12] = target: Gal(b1-3)GlcNAc(a1-3)Gal(b1-4)GlcNAc
# Procedure, shortened: as §1
# [13] = target: Gal(b1-3)GlcNAc(a1-6)Gal(b1-4)GlcNAc
# Procedure, shortened: as §1
# [14] = target: Gal(b1-3)GlcNAc(b1-2)Man
# Procedure, shortened: as §1
# [15] = target: Gal(b1-3)GlcNAc(b1-2)Man(a1-3)[Gal(b1-3)GlcNAc(b1-2)Man(a1-6)]Man(b1-4)GlcNAc(b1-4)GlcNAc
# Procedure, shortened: as §1
# [16] = target: Gal(b1-3)GlcNAc(b1-2)Man(a1-3)[Gal(b1-3)GlcNAc(b1-2)Man(a1-6)]Man(b1-4)GlcNAc(b1-4)[Fuc(a1-6)]GlcNAc
# Procedure, shortened: as §1
# [17] = target: Gal(b1-3)GlcNAc(b1-2)Man(a1-3)[GlcNAc(b1-4)][Gal(b1-3)GlcNAc(b1-2)Man(a1-6)]Man(b1-4)GlcNAc(b1-4)GlcNAc
# Procedure, shortened: as §1
# [18] = target: Gal(b1-3)GlcNAc(b1-2)[Gal(b1-3)GlcNAc(b1-6)]Man(a1-6)[Gal(b1-3)GlcNAc(b1-2)Man(a1-3)]Man(b1-4)GlcNAc(b1-4)GlcNAc
# Procedure, shortened: as §1
# [19] = target: Gal(b1-3)GlcNAc(b1-3)Gal(b1-3)GlcNAc
# Procedure, shortened: as §1
# [20] = target: Gal(b1-3)GlcNAc(b1-3)Gal(b1-4)Glc
# Procedure, shortened: as §1
# [21] = target: Gal(b1-3)GlcNAc(b1-3)Gal(b1-4)GlcNAc
# Procedure, shortened: as §1
# [22] = target: Gal(b1-3)GlcNAc(b1-3)Gal(b1-4)GlcNAc(b1-2)Man(a1-3)[Gal(b1-3)GlcNAc(b1-3)Gal(b1-4)GlcNAc(b1-2)Man(a1-6)]Man(b1-4)GlcNAc(b1-4)GlcNAc
# Procedure, shortened: as §1
# [23] = target: Gal(b1-3)GlcNAc(b1-3)Gal(b1-4)GlcNAc(b1-2)[Gal(b1-3)GlcNAc(b1-3)Gal(b1-4)GlcNAc(b1-6)]Man(a1-6)[Gal(b1-3)GlcNAc(b1-3)Gal(b1-4)GlcNAc(b1-2)Man(a1-3)]Man(b1-4)GlcNAc(b1-4)[Fuc(a1-6)]GlcNAc
# Procedure, shortened: as §1
# [24] = target: Gal(b1-3)GlcNAc(b1-3)Gal(b1-4)GlcNAc(b1-3)Gal(b1-4)GlcNAc(b1-2)[Gal(b1-3)GlcNAc(b1-3)Gal(b1-4)GlcNAc(b1-3)Gal(b1-4)GlcNAc(b1-6)]Man(a1-6)[Gal(b1-3)GlcNAc(b1-3)Gal(b1-4)GlcNAc(b1-3)Gal(b1-4)GlcNAc(b1-2)Man(a1-3)]Man(b1-4)GlcNAc(b1-4)[Fuc(a1-6)]GlcNAc
# Procedure, shortened: as §1
# [25] = target: Gal(b1-3)GlcNAc(b1-3)Gal(b1-4)GlcNAc(b1-6)[Gal(b1-3)GlcNAc(b1-3)]Gal(b1-4)Glc
# Procedure, shortened: as §1
# [26] = target: Gal(b1-3)GlcNAc(b1-3)Gal(b1-4)[Fuc(a1-3)]GlcNAc
# Procedure, shortened: as §1
# [27] = target: Gal(b1-3)GlcNAc(b1-3)Gal(b1-4)[Fuc(a1-3)]GlcNAc(b1-6)[Gal(b1-3)GlcNAc(b1-3)]Gal(b1-4)Glc
# Procedure, shortened: as §1
# [28] = target: Gal(b1-3)GlcNAc(b1-3)GalNAc
# Procedure, shortened: as §1
# [29] = target: Gal(b1-3)GlcNAc(b1-6)Gal(b1-4)GlcNAc
# Procedure, shortened: as §1
# [30] = target: Gal(b1-3)GlcNAc(b1-6)GalNAc
# Procedure, shortened: as §1
# [31] = target: Gal(b1-3)GlcNAc(b1-6)[Gal(b1-3)]GalNAc
# Procedure, shortened: as §1
# [32] = target: Gal(b1-3)GlcNAc6S
# Procedure, shortened: as §1
# [33] = target: Gal(b1-3)[Fuc(a1-4)]GlcNAc
# Procedure, shortened: as §1
# [34] = target: Gal(b1-3)[Fuc(a1-4)]GlcNAc(b1-2)Man
# Procedure, shortened: as §1
# [35] = target: Gal(b1-3)[Fuc(a1-4)]GlcNAc(b1-2)Man(a1-3)[Gal(b1-3)[Fuc(a1-4)]GlcNAc(b1-2)Man(a1-6)]Man(b1-4)GlcNAc(b1-4)[Fuc(a1-6)]GlcNAc
# Procedure, shortened: as §1
# [36] = target: Gal(b1-3)[Fuc(a1-4)]GlcNAc(b1-3)Gal(b1-3)[Fuc(a1-4)]GlcNAc
# Procedure, shortened: as §1
# [37] = target: Gal(b1-3)[Fuc(a1-4)]GlcNAc(b1-3)Gal(b1-4)[Fuc(a1-3)]GlcNAc
# Procedure, shortened: as §1
# [38] = target: Gal(b1-3)[Fuc(a1-4)]GlcNAc(b1-6)GalNAc
# Procedure, shortened: as §1
# [39] = target: Gal(b1-3)[GlcNAc(b1-6)]GalNAc
# Procedure, shortened: as §1
# [40] = target: Gal(b1-3)[Neu5Ac(a2-6)]GalNAc
# Procedure, shortened: as §1
# [41] = target: Gal(b1-3)[Neu5Ac(a2-6)]GlcNAc(b1-4)Gal(b1-4)Glc
# Procedure, shortened: as §1
# [42] = target: Gal(b1-3)[Neu5Ac(b2-6)]GalNAc
# Procedure, shortened: as §1
# [43] = target: Gal(b1-4)Gal
# Procedure, shortened: as §1
# [44] = target: Gal(b1-4)GalNAc(a1-3)[Fuc(a1-2)]Gal(b1-4)GlcNAc
# Procedure, shortened: as §1
# [45] = target: Gal(b1-4)GalNAc(b1-3)[Fuc(a1-2)]Gal(b1-4)GlcNAc
# Procedure, shortened: as §1
binder,measurement,setting,value
B1,glycan array binding signal (z-score),[1],-0.279
same,glycan array binding signal (z-score),[2],-0.352
same,glycan array binding signal (z-score),[3],0.208
same,glycan array binding signal (z-score),[4],-0.096
same,glycan array binding signal (z-score),[5],2.08
same,glycan array binding signal (z-score),[6],-0.432
same,glycan array binding signal (z-score),[7],0.019
same,glycan array binding signal (z-score),[8],-0.402
same,glycan array binding signal (z-score),[9],0.284
same,glycan array binding signal (z-score),[10],-0.418
same,glycan array binding signal (z-score),[11],1.38
same,glycan array binding signal (z-score),[12],-0.572
same,glycan array binding signal (z-score),[13],-0.36
same,glycan array binding signal (z-score),[14],-0.381
same,glycan array binding signal (z-score),[15],-0.27
same,glycan array binding signal (z-score),[16],-0.259
same,glycan array binding signal (z-score),[17],-0.228
same,glycan array binding signal (z-score),[18],-0.564
same,glycan array binding signal (z-score),[19],-0.338
same,glycan array binding signal (z-score),[20],-0.109
same,glycan array binding signal (z-score),[21],-0.483
same,glycan array binding signal (z-score),[22],0.225
same,glycan array binding signal (z-score),[23],0.13
same,glycan array binding signal (z-score),[24],-0.214
same,glycan array binding signal (z-score),[25],5.77
same,glycan array binding signal (z-score),[26],0.419
same,glycan array binding signal (z-score),[27],0.118
same,glycan array binding signal (z-score),[28],-0.541
same,glycan array binding signal (z-score),[29],-0.987
same,glycan array binding signal (z-score),[30],0.191
same,glycan array binding signal (z-score),[31],-0.208
same,glycan array binding signal (z-score),[32],-0.528
same,glycan array binding signal (z-score),[33],-0.085
same,glycan array binding signal (z-score),[34],-0.282
same,glycan array binding signal (z-score),[35],-0.354
same,glycan array binding signal (z-score),[36],-0.178
same,glycan array binding signal (z-score),[37],-0.458
same,glycan array binding signal (z-score),[38],-0.308
same,glycan array binding signal (z-score),[39],0.205
same,glycan array binding signal (z-score),[40],-0.282
same,glycan array binding signal (z-score),[41],-0.408
same,glycan array binding signal (z-score),[42],0.305
same,glycan array binding signal (z-score),[43],-0.398
same,glycan array binding signal (z-score),[44],-0.621
same,glycan array binding signal (z-score),[45],-0.535
